Where no end group is shown, it is not given here.
Tested on: RAW 264.7 (Mouse leukaemic monocyte macrophage cell line) cells
Test: Phagocytosis assay (Fluorescein-labeled Escherichia coli, flow cytometry)
Conditions: 10 micrograms per ml; RAW 264.7 cells, Fluorescein-labeled E. coli
Procedure: RAW 264.7 (Mouse leukaemic monocyte macrophage cell line) cells were obtained from ATCC and grown in RPMI 1640 medium containing 10% FBS. Cells were incubated in 12×75 mm tubes at 37° C. with test peptides-10 micrograms per ml-for 30 min prior to adding Fluorescein-labeled Escherichia coli bacteria as the agent to be ingested. After the cells were incubated for additional 60 min at 37° C. and allowed to ingest the Fluorescein-labeled Escherichia coli bacteria, cells were fixed with 1% paraformaldehyde. The samples were then analyzed by flow cytometry to determine the amount of phagocytosis as a function of brightness (the greater the phagocytic activity, the more fluorescence in the macrophage population). Data are reported as % positive and the mean fluorescence intensity (MFI) of positively stained cells.

Substance	induction of phagocytosis as compared to the control experiment [%]
Cys-Tyr-Cys-Arg-Ile-Pro-Ala-Cys-Ile-Ala-Gly-Glu-Arg-Arg-Tyr-Gly-Thr-Cys-Ile-Tyr-Gln-Gly-Arg-Leu-Trp-Ala-Phe-Cys-Cys-OH (CYCRIPACIAGERRYGTCIYQGRLWAFCC-OH; cysteine pairing not given here) [Peptide 1]	14.3
Ser-Glu-Ile-Trp-Arg-Asp-Ile-Asp-Phe-OH (SEIWRDIDF-OH) [Peptide 2]	40.0

Source: patent publication US20100210537A1, “USE OF A DEFENSIN PEPTIDE AS A THERAPEUTIC AGENT” (priority 2007, published 2010)
